Results published in the supplement of paper PMC8007513.
Where a name gives a salt, the structure may show the parent alone. ± gives the standard error. Screen size: about 1,300 compounds; about 130 (10%) showed an effect of 50% or more. The list shows a part of the results, in another mix than the full data.

Tested on: Trichoderma virens ATCC 9645
Experiment: growth yield (OD600) with compound + IPBC relative to untreated control; higher = less growth inhibition
Conditions: compound concentration: 100 uM, IPBC concentration: 200 ng/ml
How it was run: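 A biocide at 200 ng ml^−1 was co-applied to some wells, and library compounds were present in all test wells at 100 μM final. The wells held 100 μl of Trichoderma virens ATCC 9645 spores at 15,000 spores ml^−1 in potato dextrose broth, grown at 30 °C in 96-well plates, with OD600 read at 40 h and 72 h. Results are relative growth against the control without either agent, averaged across duplicate screens.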

Structure (SMILES)	growth yield (40 h)	growth yield (72 h)
COc1cc2ncnc(Nc3ccc(F)c(Cl)c3)c2cc1OCCCN1CCOCC1 [Gefitinib] + CCCCNC(=O)OCC#CI [3-iodo-2-propynyl butylcarbamate (IPBC)]	16.4 ± 5.2%	10.5 ± 0.63%
CCN1CCC[C@H]1CNC(=O)c1c(O)c(Cl)cc(Cl)c1OC [Raclopride] + CCCCNC(=O)OCC#CI [3-iodo-2-propynyl butylcarbamate (IPBC)]	84.7 ± 1.4%	95.96 ± 0.1%
CC[C@@H]([C@H](C)O)n1ncn(-c2ccc(N3CCN(c4ccc(OC[C@@H]5CO[C@@](Cn6cncn6)(c6ccc(F)cc6F)C5)cc4)CC3)cc2)c1=O [Posaconazole] + CCCCNC(=O)OCC#CI [3-iodo-2-propynyl butylcarbamate (IPBC)]	3.97 ± 1.4%	3.78 ± 1.7%
CNC(C)(C)Cc1ccccc1 [Mephentermine hemisulfate] + CCCCNC(=O)OCC#CI [3-iodo-2-propynyl butylcarbamate (IPBC)]	117 ± 10%	108 ± 4.2%
NCc1ccc(S(N)(=O)=O)cc1 [Mafenide hydrochloride] + CCCCNC(=O)OCC#CI [3-iodo-2-propynyl butylcarbamate (IPBC)]	96.7 ± 2.7%	110 ± 5.2%
CN[C@@H]1[C@H](O[C@H]2[C@H](O[C@H]3[C@H](O)[C@@H](O)[C@H](NC(=N)N)[C@@H](O)[C@@H]3NC(=N)N)O[C@@H](C)[C@]2(O)CO)O[C@@H](CO)[C@H](O)[C@H]1O [Dihydrostreptomycin sulfate] + CCCCNC(=O)OCC#CI [3-iodo-2-propynyl butylcarbamate (IPBC)]	101 ± 9.1%	101 ± 5.9%
CC/C(=C(\c1ccccc1)c1ccc(OCCN(C)C)cc1)c1ccccc1 [Tamoxifen citrate] + CCCCNC(=O)OCC#CI [3-iodo-2-propynyl butylcarbamate (IPBC)]	3.34 ± 0.48%	3.36 ± 0.63%
CCc1oc2ccccc2c1C(=O)c1cc(Br)c(O)c(Br)c1 [Benzbromarone] + CCCCNC(=O)OCC#CI [3-iodo-2-propynyl butylcarbamate (IPBC)]	43.68 ± 0.16%	99.3 ± 8.1%
C#C[C@]1(O)CC[C@H]2[C@@H]3CCC4=C(CCC(=O)C4)[C@H]3CC[C@@]21C [Norethynodrel] + CCCCNC(=O)OCC#CI [3-iodo-2-propynyl butylcarbamate (IPBC)]	69.7 ± 1.8%	83.1 ± 1.9%
NS(=O)(=O)c1cc2c(cc1Cl)NC(CC1CCCC1)NS2(=O)=O (stereo unspecified) [Cyclopenthiazide] + CCCCNC(=O)OCC#CI [3-iodo-2-propynyl butylcarbamate (IPBC)]	88.8 ± 1.4%	98.48 ± 0.32%
CC(C)(C)NCC(O)c1cc(O)cc(O)c1 (stereo unspecified) [Terbutaline hemisulfate] + CCCCNC(=O)OCC#CI [3-iodo-2-propynyl butylcarbamate (IPBC)]	95.9 ± 14%	97.2 ± 8.5%
CCOC(=O)[N-]c1c[n+](N2CCOCC2)no1 [Molsidomine] + CCCCNC(=O)OCC#CI [3-iodo-2-propynyl butylcarbamate (IPBC)]	86.9 ± 5.6%	91 ± 2.9%
CC[N+](CC)(CC)CCOc1cccc(OCC[N+](CC)(CC)CC)c1OCC[N+](CC)(CC)CC [Gallamine triethiodide] + CCCCNC(=O)OCC#CI [3-iodo-2-propynyl butylcarbamate (IPBC)]	80.37 ± 0.64%	92.5 ± 1.7%
NCCCNCCSP(=O)(O)O [Amifostine] + CCCCNC(=O)OCC#CI [3-iodo-2-propynyl butylcarbamate (IPBC)]	110%	106%
CC(COc1ccccc1)NC(C)C(O)c1ccc(O)cc1 (stereo unspecified) [Isoxsuprine hydrochloride] + CCCCNC(=O)OCC#CI [3-iodo-2-propynyl butylcarbamate (IPBC)]	89.6 ± 1.3%	96.1 ± 2.1%
CC(C)(C)c1ccc(C(O)CCCN2CCC(C(O)(c3ccccc3)c3ccccc3)CC2)cc1 (stereo unspecified) [Terfenadine] + CCCCNC(=O)OCC#CI [3-iodo-2-propynyl butylcarbamate (IPBC)]	47.2 ± 9.1%	90.09 ± 0.73%
CCOC(=O)NNc1nncc2ccccc12 [Todralazine hydrochloride] + CCCCNC(=O)OCC#CI [3-iodo-2-propynyl butylcarbamate (IPBC)]	99.6 ± 7.2%	97.3 ± 4.8%
CCCCN1CCCCC1C(=O)Nc1c(C)cccc1C (stereo unspecified) [Bupivacaine hydrochloride] + CCCCNC(=O)OCC#CI [3-iodo-2-propynyl butylcarbamate (IPBC)]	77.5 ± 2.2%	85.9 ± 1.4%
CCN(CCO)CCCC(C)Nc1ccnc2cc(Cl)ccc12 (stereo unspecified) [Hydroxychloroquine sulfate] + CCCCNC(=O)OCC#CI [3-iodo-2-propynyl butylcarbamate (IPBC)]	99.8 ± 1.6%	96.59 ± 0.32%

Structure (SMILES)	growth yield (40 h)	growth yield (72 h)
CC(=O)[C@H]1CC[C@H]2[C@@H]3CC=C4C[C@@H](O)CC[C@]4(C)[C@H]3CC[C@]12C [Pregnenolone] + CCCCNC(=O)OCC#CI [3-iodo-2-propynyl butylcarbamate (IPBC)]	78 ± 12%	83.8 ± 6.2%
COc1ccc(CC2c3cc(OC)c(OC)cc3CC[N+]2(C)CCC(=O)OCCCCCOC(=O)CC[N+]2(C)CCc3cc(OC)c(OC)cc3C2Cc2ccc(OC)c(OC)c2)cc1OC (stereo unspecified) [Atracurium besylate] + CCCCNC(=O)OCC#CI [3-iodo-2-propynyl butylcarbamate (IPBC)]	83.1 ± 2.4%	92.6 ± 2.2%
CCOc1ccccc1OC(c1ccccc1)C1CNCCO1 (stereo unspecified) [Reboxetine mesylate] + CCCCNC(=O)OCC#CI [3-iodo-2-propynyl butylcarbamate (IPBC)]	82.92 ± 0.32%	90.61 ± 0.63%
Nc1ccc(S(=O)(=O)Nc2ccccn2)cc1 [Sulfapyridine] + CCCCNC(=O)OCC#CI [3-iodo-2-propynyl butylcarbamate (IPBC)]	98.8 ± 10%	98.6 ± 7.5%
Nc1ccn([C@@H]2O[C@H](CO)[C@@H](O)[C@@H]2O)c(=O)n1 [Cytarabine] + CCCCNC(=O)OCC#CI [3-iodo-2-propynyl butylcarbamate (IPBC)]	82.6 ± 0.64%	88.52 ± 0.42%
COc1ccnc(C[S+]([O-])c2nc3cc(OC(F)F)ccc3[nH]2)c1OC (stereo unspecified) [Pantoprazole sodium] + CCCCNC(=O)OCC#CI [3-iodo-2-propynyl butylcarbamate (IPBC)]	73.5 ± 2.4%	98.9 ± 0.94%
Cc1ccc(S(=O)(=O)NC(=O)NN2CCCCCC2)cc1 [Tolazamide] + CCCCNC(=O)OCC#CI [3-iodo-2-propynyl butylcarbamate (IPBC)]	89 ± 7.6%	93.7 ± 2.6%
COc1cccc(OC)c1C(=O)N[C@@H]1C(=O)N2[C@@H]1SC(C)(C)[C@@H]2C(=O)O [Methicillin sodium] + CCCCNC(=O)OCC#CI [3-iodo-2-propynyl butylcarbamate (IPBC)]	89.3%	90.7 ± 2%
CCOC(=O)c1ccc(N)cc1 [Benzocaine] + CCCCNC(=O)OCC#CI [3-iodo-2-propynyl butylcarbamate (IPBC)]	91.5 ± 7.9%	93.4 ± 5.6%
OC(CCCN1CCCCC1)(c1ccccc1)c1ccccc1 [Diphenidol hydrochloride] + CCCCNC(=O)OCC#CI [3-iodo-2-propynyl butylcarbamate (IPBC)]	89.4 ± 2.4%	96.7 ± 3.4%
Nc1nc(NC2CC2)c2ncn([C@H]3C=C[C@@H](CO)C3)c2n1 [Abacavir Sulfate] + CCCCNC(=O)OCC#CI [3-iodo-2-propynyl butylcarbamate (IPBC)]	90.54 ± 0.32%	93.1 ± 2.5%
CNC(C)CCC=C(C)C (stereo unspecified) [Isometheptene mucate] + CCCCNC(=O)OCC#CI [3-iodo-2-propynyl butylcarbamate (IPBC)]	101 ± 16%	101 ± 8.4%
O=C(COc1ccc(Cl)cc1)N1CCN(Cc2ccc3c(c2)OCO3)CC1 [Fipexide hydrochloride] + CCCCNC(=O)OCC#CI [3-iodo-2-propynyl butylcarbamate (IPBC)]	64 ± 1.1%	85.2 ± 1.9%
CN(Cc1cnc2nc(N)nc(N)c2n1)c1ccc(C(=O)N[C@@H](CCC(=O)O)C(=O)O)cc1 (racemic) [Amethopterin (R,S)] + CCCCNC(=O)OCC#CI [3-iodo-2-propynyl butylcarbamate (IPBC)]	88.2 ± 12%	96.3 ± 7.3%
Cc1ccsc1/C=C/C1=NCCCN1C [Morantel tartrate] + CCCCNC(=O)OCC#CI [3-iodo-2-propynyl butylcarbamate (IPBC)]	97.5 ± 3.2%	98.4 ± 1.9%
CN(C)c1ccc(O)c2c1C[C@H]1C[C@H]3[C@H](N(C)C)C(O)=C(C(N)=O)C(=O)[C@@]3(O)C(O)=C1C2=O [Minocycline hydrochloride] + CCCCNC(=O)OCC#CI [3-iodo-2-propynyl butylcarbamate (IPBC)]	58.1 ± 2.2%	84.6 ± 4.7%
CN(C)[C@@H]1C(O)=C(C(N)=O)C(=O)[C@@]2(O)C(O)=C3C(=O)c4c(O)cccc4[C@@](C)(O)[C@H]3[C@H](O)[C@@H]12 [Oxytetracycline dihydrate] + CCCCNC(=O)OCC#CI [3-iodo-2-propynyl butylcarbamate (IPBC)]	83.5 ± 3.8%	72.7 ± 2.2%
CC/C(=C(/CC)c1ccc(O)cc1)c1ccc(O)cc1 [Diethylstilbestrol] + CCCCNC(=O)OCC#CI [3-iodo-2-propynyl butylcarbamate (IPBC)]	85 ± 15%	87.9 ± 10%
CSc1ccc2c(c1)N(CCC1CCCCN1C)c1ccccc1S2 (stereo unspecified) [Thioridazine hydrochloride] + CCCCNC(=O)OCC#CI [3-iodo-2-propynyl butylcarbamate (IPBC)]	3.81 ± 0.64%	2.94 ± 0.21%
